# Data as given in PubChem BioAssay AID1508623 (National Center for Advancing Translational Sciences (NCATS), 2021).
# Out of some 48,000 compounds screened, about 450 (0.94%) were called active. Roughly 19% stayed inconclusive and do not appear here. The call rests on the fitted dose curve; in most records, active means well fitted inhibition curve with a large enough effect; inconclusive means small, poorly fitted or top-dose-only effect; inactive means no such curve, though single readings can be large or run the other way. Some of the results follow.
# Experiment: Primary qHTS for Identification of Small Molecule Inhibitors of Huntingtin Promoter Activity; further: nearly all actives have a fitted effect of over 50% in size
# Settings: HEK293 HTT promoter firefly luciferase reporter (activity 0% = vehicle and -100% = no light), 24 h; series mostly up to 57.5 µM; activity change, negative = inhibition: at the top concentration
# Procedure, shortened: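 HEK293 Fluc reporter, 2,500 cells/well, 24 h pre-culture; cpds up to 57.5 uM final, 24 h 37 degrees C; Dual-Glo, 10 min RT; normalized vehicle = 0%, zero RLU = -100%.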
# Potency means the concentration at half of the fitted maximal effect.
SMILES,"activity change, negative = inhibition",Potency
CCOC(=O)c1c(C)oc2nc(C)nc(NCC3CCN(Cc4ccccc4C)CC3)c12,inactive: 8.74%,
Cc1ccc2nc(-c3cccc(NC(=O)c4cccc5c(Cl)cccc45)c3)oc2c1,inactive: -7.25%,
O=C(NCC(c1cccnc1)N1CCOCC1)C(=O)Nc1ccc(Cl)cc1 (stereo not given),inactive: -11.3%,
Cc1ccc(S(=O)(=O)n2nc(-c3ccccc3)nc2NCc2ccccc2Cl)cc1,inactive: -17.7%,
C#C[C@]1(O)CC[C@H]2[C@@H]3CCC4=Cc5oncc5C[C@]4(C)[C@H]3CC[C@@]21C,inactive: -17.5%,
Cc1ccc(-c2cc(C(=O)N3CCN(S(=O)(=O)c4ccc(Br)s4)CC3)[nH]n2)cc1C,inactive: -21.1%,
COc1ccc(CNc2nc(-c3ccco3)nn2S(=O)(=O)c2ccc3ccccc3c2)cc1OC,inactive: -22.7%,
Cc1cc(C)n2nc(NCc3ccccc3Cl)nc2n1,inactive: 5.87%,
Cc1ccc(C)c(NC(=O)Cn2c(=O)n(Cc3nc(C)no3)c(=O)c3cc4c(cc32)OCO4)c1,inactive: -15.4%,
CCc1ccc(NC(=O)Cn2c(=O)n(Cc3ccc4c(c3)OCO4)c(=O)c3oc4ccccc4c32)cc1,inactive: -0.851%,
CC(=O)Nc1ccc(NC(=O)CSc2cn(CC(=O)N(C(C)C)C(C)C)c3ccccc23)cc1,inactive: -4.5%,
Cc1cc2oc(C(=O)NCCc3ccc(S(N)(=O)=O)cc3)cc(=O)c2cc1C,inactive: -21.7%,
CCC(=O)N1CCc2cc(S(=O)(=O)NC(Cc3ccccc3)C(=O)NCc3ccc(C)cc3)ccc21 (stereo not given),inactive: -10.4%,
COc1ccc(OCCn2cc(C(=O)c3ccco3)c3ccccc32)cc1,inactive: -28.4%,
CCOc1ccccc1CN1C(=O)c2ccccc2C1C(=O)NC1CCCCCC1 (stereo not given),inactive: -11.7%,
COC(=O)c1cc2occc2n1Cc1nc(-c2ccccc2C)oc1C,inactive: -5.22%,
COc1ccc(-c2nc(C)c(CCNC(=O)c3ccco3)s2)cc1,inactive: 20.5%,
CCC(C)Sc1nc2c([nH]c3ccccc32)c(=O)n1C (stereo not given),inactive: -1.16%,
Cc1ccccc1COC(=O)c1ccc(-c2nnn(Cc3ccccc3F)n2)cc1,inactive: 21.3%,
CCN1CCN(C(=O)c2ccc3c(c2)N(Cc2c(F)cccc2Cl)C(=O)c2ccccc2S3)CC1,inactive: -24.2%,
O=c1c(-c2cc(-c3ccc(F)cc3)nc3c2COc2ccc(Cl)cc2-3)coc2ccc(F)cc12,inactive: -1.62%,
CC(=O)N1c2ccc(S(=O)(=O)N3CCN(c4cc(Cl)ccc4C)CC3)cc2CC1C (stereo not given),inactive: 7.04%,
O=C(CCCCCn1c(=O)[nH]c2ccccc2c1=O)N1CCN(c2ccc(Cl)cc2)CC1,inactive: -9.7%,
COc1cc2c(cc1OC)C(COc1cc(C)cc(C)c1)N(C(=O)c1ccc(S(=O)(=O)N3CCCC3)cc1)CC2 (stereo not given),inactive: -24.5%,

SMILES,"activity change, negative = inhibition",Potency
O=C(CSc1nc2c([nH]c3ccccc32)c(=O)n1-c1cccc(Cl)c1)NCc1ccccc1,inactive: -23.8%,
CCc1nnc(NC(=O)CSc2nc3c([nH]c4ccccc43)c(=O)n2-c2ccc(C)cc2)s1,inactive: -24.5%,
CCc1nc2ccc(C(=O)N3CCN(c4cccc(OC)c4)CC3)cc2nc1CC,inactive: -14%,
CCOC(=O)C1CCCN(C(=O)Cn2ncc3c4ccccc4n(Cc4ccc(F)cc4)c3c2=O)C1 (stereo not given),inactive: -18.7%,
O=C(COc1ccccc1)Nc1sc2c(c1C(=O)Nc1ccccc1)CCCCC2,inactive: 2.3%,
CC(=O)SCC(CC(=O)c1ccc(C)cc1)C(=O)O (stereo not given),inactive: 11.8%,
CCOC(=O)CNC(=O)CC(c1cc(OC)c(OC)c(OC)c1)N1Cc2ccccc2C1=O (stereo not given),inactive: -9.39%,
CCOC(=O)c1ccc(NC(=O)CCn2c(=O)oc3ccccc32)cc1,inactive: -5.98%,
CCN(CC)c1ccc(C(=O)Nc2ccc3nc(N(CC)CC)cc(C)c3c2)cc1,inactive: -22.8%,
Cc1ccc2[nH]c(CSc3nnc(NC(=O)COc4ccccc4Cl)s3)cc(=O)c2c1,inactive: 5.59%,
CN(Cc1ccccc1)C(=O)Cn1c(=O)c2cccn2c2ccc(F)cc21,inactive: 17.2%,
O=S(=O)(NCC(c1ccco1)N1CCOCC1)c1ccc(Cl)cc1 (stereo not given),inactive: -7.54%,
Cc1ccccc1NC(=O)C1CCN(S(=O)(=O)c2ccccc2)CC1,inactive: -14.1%,
O=C(Nc1ccccc1C(F)(F)F)Nc1c[nH]c(=O)[nH]c1=O,inactive: 2.51%,
COc1ccc(Nc2c(-c3ccco3)nc3cccc(C)n23)cc1,inactive: -32.8%,
CCN(CC)CC(=O)Nc1c(C)cccc1C(=O)OC,inactive: -0.293%,
Cc1ccc2c(C)c(C(=O)N3CCC(c4nc5ccccc5s4)CC3)oc2c1C,inactive: 23.1%,
Cc1c(C(=O)OC2CCCCC2)[nH]c2c1C(=O)CC(c1ccccc1)C2 (stereo not given),inactive: -12.4%,
CCN(CC)S(=O)(=O)c1ccc2c(c1)N(CC(=O)NCc1ccc(F)cc1)C(=O)CO2,inactive: -14.9%,
Cc1ccc2oc(=O)c3cnn(CC(=O)N4CCN(c5cccc(C(F)(F)F)c5)CC4)c3c2c1,inactive: 5.46%,
CCC(C)NC(=O)CSc1nc2c(sc3ccccc32)c(=O)n1CCc1ccccc1 (stereo not given),inactive: -5.39%,
O=S(=O)(c1cccc(C(F)(F)F)c1)N1CCC(Oc2ccc(-n3cnnn3)cc2)CC1,inactive: -23.8%,
COc1ccc(NC(=O)C2=C(C)Nc3c(C(=O)Nc4ccc(C)cc4)cnn3C2c2cc(OC)ccc2OC)cc1 (stereo not given),inactive: -6.45%,
COc1cccc(NC(=O)Cn2c(=O)n(Cc3ccccc3)c(=O)c3c2c2cc(C)ccc2n3C)c1,inactive: 3.91%,

SMILES,"activity change, negative = inhibition",Potency
CCCN1CCc2nc(SCC(=O)Nc3ccc(C)c(Cl)c3)[nH]c(=O)c2C1,inactive: 35%,
CCOc1ccc(C(=O)N2CCC(c3nc(-c4ccc(S(=O)(=O)N5CCCC5)cc4)no3)CC2)cc1,inactive: -21.9%,
c1ccc(CSc2nnc(C3CCNCC3)o2)cc1,inactive: -6.43%,
COC(=O)c1ccc(NC(=O)CCn2cccn2)cc1,inactive: 23.3%,
Cc1ccc(C(C)C)c(OCC(=O)Nc2cccc(-c3nc4ncccc4o3)c2)c1,inactive: -20.6%,
CCOc1ccc(-c2cc3c(=O)n(Cc4nc(-c5ccc(OC)cc5OC)oc4C)ccn3n2)cc1Cl,inactive: 32.2%,
COc1cccc(Oc2nc3c(c(=O)n(Cc4ccccc4Cl)c(=O)n3C)n2C)c1,inactive: -18.4%,
COc1ccccc1NC(=O)c1nnn(-c2ccc(F)cc2)c1C,inactive: 32.2%,
Cc1cc(F)ccc1NC(=O)C(C(C)C)N1Cc2ccccc2C1=O (stereo not given),inactive: 30.5%,
COc1ccc(CNC(=O)c2ccc3c(c2)N(Cc2ccccc2)C(=O)c2ccccc2S3=O)cc1 (stereo not given),inactive: -7.53%,
CC(=O)Nc1ccc(S(=O)(=O)NC2=NCN(C(C)C)CN2)cc1,inactive: -14.7%,
COc1ccc(C(=O)N2CC(=O)Nc3ccc(C)cc3C2c2ccc(F)cc2)c(OC)c1 (stereo not given),inactive: -18.5%,
CN(CC(=O)NCc1ccccc1Cl)S(=O)(=O)c1ccc2c(c1)c(=O)n(C)c(=O)n2C,inactive: -9.25%,
Cc1sc2ncn(CC(=O)N3CCN(c4ccccc4F)CC3)c(=O)c2c1S(=O)(=O)N1CCN(c2ncccn2)CC1,inactive: -10.5%,
Cc1ccc(Cl)cc1N1CCN(C(=O)Cc2c(C(=O)O)c(C)cn2C)CC1,inactive: -16.9%,
O=c1c(-c2cc(-c3ccc(Cl)cc3)nc3c2COc2ccccc2-3)coc2ccccc12,inactive: -8.93%,
CCC(=O)N1CCc2cc(Br)cc(S(=O)(=O)CCC(=O)NCCc3ccc(C)cc3)c21,inactive: 1.75%,
CNC(=O)C1CCC(Cn2c(=O)c3sccc3n(CC(=O)Nc3cc(F)ccc3F)c2=O)CC1 (stereo not given),inactive: -17.7%,
CC(=O)Nc1cccc(NC(=O)CSc2cn(CC(=O)N3CCCCCC3)c3ccccc23)c1,inactive: -20.2%,
CCOC(=O)c1cccc(NC(=O)N2CCC(CN3CCCCCC3)CC2)c1,inactive: -8.3%,
O=C(Nc1ccc2oc(-c3cccc(Cl)c3Cl)nc2c1)c1cccc(Br)c1,inactive: -14.1%,
O=[N+]([O-])c1cc(-c2nc(-c3ccncc3)no2)ccc1NCc1ccccc1,inactive: -1.55%,
COc1cn(CC(=O)Nc2cc(C)ccc2C)c(CN2CCCCC2)cc1=O,inactive: -19.5%,
COc1ccccc1NC(=O)C1=C(C)Nc2nc(SCc3ccccc3Cl)nn2C1c1ccncc1 (stereo not given),inactive: -14.4%,

SMILES,"activity change, negative = inhibition",Potency
CC(=O)c1c(C)oc2ccc(N(C(=O)c3ccncc3)S(=O)(=O)c3ccc(C)cc3C)cc12,,active: 28.2 µM
CCOc1ccc(C(=O)c2cn(CC(=O)Nc3cc(OC)ccc3OC)c3cc(OC)c(OC)cc3c2=O)cc1,inactive: -14.4%,
COc1ccc(-c2ccc(=O)n(CC(=O)NCCc3ccccc3)n2)cc1,inactive: 9.62%,
O=C(O)c1cccnc1,inactive,
CCc1ccc(OCCSc2nc(-c3cccc(C)c3)nc3cc(=O)[nH]n23)cc1,inactive: 0.505%,
COc1ccc(NC(=O)CCSc2nc(-c3ccco3)cc(C(F)(F)F)n2)cc1OC,inactive: -21.5%,
COc1ccc(NCc2nnc3n2CCCCC3)c(OC)c1,inactive: -9.67%,
O=C(CN1C(=O)C2(SCC(=O)N2c2ccc(F)cc2)c2ccccc21)NCCc1ccccc1 (stereo not given),inactive: -10.6%,
Cc1cc(C)cc(Nc2cc(C(=O)NCc3ccccc3)c3ccccc3n2)c1,inactive: -8.05%,
Cc1cc(C)c(NC(=O)C(C)n2nnc3sc(-c4ccccc4)cc3c2=O)c(C)c1 (stereo not given),inactive: 0.188%,
CCOc1cc(CNCCSc2nnnn2-c2ccccc2)ccc1OC,inactive: -28.9%,
CSc1ccc(CCNC(=O)c2cc3c(-c4ccccc4F)nn(C)c3s2)cc1,inactive: -25.8%,
Cc1cccc(NC(=O)Cn2c(=O)n(CCC(=O)N3CCc4ccccc4C3)c(=O)c3ccccc32)c1,inactive: -14.4%,
CCCCc1oc2ccccc2c1C(=O)c1cc(I)c(OCCN(CC)CC)c(I)c1,inactive: -17.6%,
Cc1cc(C)cc(Nc2nc3c(S(=O)(=O)c4cccc(Cl)c4)nnn3c3ccsc23)c1,inactive: -4.56%,
CC(=O)Nc1ccc(C(=O)CSc2nnc3ccc4ccccc4n23)cc1,inactive: -3.24%,
CCOC(=O)c1cc2c(=O)n3ccccc3nc2n(C)c1=NC(=O)c1cc2ccccc2o1,inactive: -17.7%,
CCOc1ccc(NC(=O)NCCN2CCN(c3ccccc3F)CC2)cc1,inactive: -13.3%,
Cc1ccc2c(c1)c1c(c(=O)n(-c3ccccc3C)c(=O)n1CC(=O)NCC1CCCO1)n2C (stereo not given),inactive: -8.72%,
Cc1cc(=O)n2nc(N3CCC(C(=O)Nc4ccc(Br)cc4F)CC3)sc2n1,inactive: -12.8%,
Cc1ccc(C)c(NC(=O)CCCN2C(=O)C(c3ccccc3)Oc3cccnc32)c1 (stereo not given),inactive: -28.8%,
CC(C)(C)c1nnc(NS(=O)(=O)c2ccccc2)s1,inactive: -6.15%,
OC[C@H]1OC(O)C[C@@H](O)[C@H]1O (stereo not given in full),inactive: 3.16%,
